{"source": "PubChem BioAssay (NCATS)", "assay": "qHTS Assay for Lipid Storage Modulators (AID 1519)", "conditions": "Drosophila S3 cells, BODIPY lipid droplet/cell ratio, laser cytometry, cells loaded with oleic acid", "outline": "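Cells seeded at 5,000 per well were treated with compounds over a concentration series and loaded with oleic acid (400 uM, as added). Lipid droplet fluorescence (488 nm excitation, 500-530 nm channel) was read by laser-scanning cytometry and normalized to 20 uM Triacsin C.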", "key": {"[1]": {"conditions": "measured here: cell count channel max response"}, "[2]": {"conditions": "measured here: cell number channel AC50"}, "[3]": {"conditions": "measured here: lipid (BODIPY) channel AC50"}, "[4]": {"conditions": "measured here: lipid channel max response"}}, "note": "Where “and” joins values, the source holds several entries; their conditions need not be identical. Equal entries are not always repeated. Some of the results follow. Further columns of the screen follow, without active or inactive calls. Most of these compounds were active or inconclusive in the main read-out, so they are no random draw. The note in brackets gives the kind of curve behind each potency; many fits are weak. Tags describe the fitted curve by direction and shape."}
{"smiles": "COc1ccc(/C=C\\C(=O)Nc2ccccc2C(=O)O)cc1OC", "values": [{"measurement": "max response", "setting": "[1]", "result": 44.7, "unit": "%"}, {"measurement": "AC50", "setting": "[2]", "result": "1.58 µM [rising, full curve, poor fit]"}, {"measurement": "AC50", "setting": "[3]", "result": "1.41 µM [rising, full curve, poor fit]"}, {"measurement": "max response", "setting": "[4]", "result": 62.4, "unit": "%"}]}
{"smiles": "CCOC(=O)[C@@]12C[C@@H]1/C(=N/O)c1ccccc1O2", "values": [{"measurement": "max response", "setting": "[1]", "result": 92, "unit": "%"}, {"measurement": "AC50", "setting": "[2]", "result": "15.8 µM [rising, partial curve, poor fit]"}, {"measurement": "AC50", "setting": "[3]", "result": "14.1 µM [rising, partial curve, poor fit]"}, {"measurement": "max response", "setting": "[4]", "result": 122, "unit": "%"}]}
{"smiles": "CCNc1ncc2nc(CCc3ccccc3)c(=O)n(C)c2n1", "values": [{"measurement": "max response", "setting": "[1]", "result": 19.5, "unit": "%"}, {"measurement": "AC50", "setting": "[2]", "result": "0.224 µM [rising, full curve, poor fit]"}, {"measurement": "AC50", "setting": "[3]", "result": "0.224 µM [rising, full curve, poor fit]"}, {"measurement": "max response", "setting": "[4]", "result": 30.5, "unit": "%"}]}
{"smiles": "COc1ccc(C(=O)N2CCC3(CCCN(c4cccc(-c5ccccc5)c4)C3)CC2)cc1", "values": [{"measurement": "max response", "setting": "[1]", "result": 19.2, "unit": "%"}, {"measurement": "AC50", "setting": "[2]", "result": "2.82 µM [rising, partial curve, poor fit]"}, {"measurement": "AC50", "setting": "[3]", "result": "2.51 µM [rising, partial curve, poor fit]"}, {"measurement": "max response", "setting": "[4]", "result": -31.1, "unit": "%"}]}
{"smiles": "CCNc1ncc2nc(CCc3ccccc3)c(=O)n(C[C@H]3CCCO3)c2n1", "values": [{"measurement": "max response", "setting": "[1]", "result": 32.9, "unit": "%"}, {"measurement": "AC50", "setting": "[2]", "result": "1.12 µM [rising, full curve]"}, {"measurement": "AC50", "setting": "[3]", "result": "0.708 µM [rising, full curve]"}, {"measurement": "max response", "setting": "[4]", "result": 35.6, "unit": "%"}]}
{"smiles": "COc1ccc(C(=O)N2CCC3(CCCN(C(=O)Nc4cccc(F)c4)C3)CC2)cc1", "values": [{"measurement": "max response", "setting": "[1]", "result": 2.67, "unit": "%"}, {"measurement": "AC50", "setting": "[2]", "result": "0.0447 µM [rising, full curve, poor fit]"}, {"measurement": "AC50", "setting": "[3]", "result": "0.0355 µM [rising, full curve, poor fit]"}, {"measurement": "max response", "setting": "[4]", "result": 8.18, "unit": "%"}]}
{"smiles": "Cc1ccc(=O)n(-c2ccccc2)c1", "values": [{"measurement": "max response", "setting": "[1]", "result": -30.5, "unit": "%"}, {"measurement": "AC50", "setting": "[2]", "result": "3.16 µM [falling, full curve, poor fit]"}, {"measurement": "AC50", "setting": "[3]", "result": "3.16 µM [falling, full curve, poor fit]"}, {"measurement": "max response", "setting": "[4]", "result": -30.8, "unit": "%"}]}
{"smiles": "O=C(Cc1ccc(Cl)cc1)c1c(O)cc(O)cc1O", "values": [{"measurement": "max response", "setting": "[1]", "result": 60.7, "unit": "%"}, {"measurement": "AC50", "setting": "[2]", "result": "3.98 µM [rising, full curve, poor fit]"}, {"measurement": "AC50", "setting": "[3]", "result": "3.98 µM [rising, full curve, poor fit]"}, {"measurement": "max response", "setting": "[4]", "result": 79.8, "unit": "%"}]}
{"smiles": "Cn1cc(-c2nc3cncnc3n(CCN)c2=O)c2ccccc21", "values": [{"measurement": "max response", "setting": "[1]", "result": 17.3, "unit": "%"}, {"measurement": "AC50", "setting": "[2]", "result": "0.282 µM [rising, full curve, poor fit]"}, {"measurement": "AC50", "setting": "[3]", "result": "0.355 µM [rising, full curve]"}, {"measurement": "max response", "setting": "[4]", "result": 26.8, "unit": "%"}]}
{"smiles": "N#Cc1cccc(-c2ccc3ncnc(NC4CCNCC4)c3c2)c1", "values": [{"measurement": "max response", "setting": "[1]", "result": 34.3, "unit": "%"}, {"measurement": "AC50", "setting": "[2]", "result": "3.98 µM [rising, partial curve, poor fit]"}, {"measurement": "AC50", "setting": "[3]", "result": "5.01 µM [rising, partial curve, poor fit]"}, {"measurement": "max response", "setting": "[4]", "result": 42.3, "unit": "%"}]}
{"smiles": "COc1ccc(C(OCCN2CCC[C@@H](C(=O)O)C2)(c2ccc(OC)cc2)c2ccc(OC)cc2)cc1", "values": [{"measurement": "max response", "setting": "[1]", "result": 53.7, "unit": "%"}, {"measurement": "AC50", "setting": "[2]", "result": "14.1 µM [rising, partial curve, poor fit]"}, {"measurement": "AC50", "setting": "[3]", "result": "14.1 µM [rising, partial curve, poor fit]"}, {"measurement": "max response", "setting": "[4]", "result": 75.4, "unit": "%"}]}
{"smiles": "CN(C)C(=O)c1ccc(-c2nc(N3CCOCC3)c3ccccc3n2)cc1", "values": [{"measurement": "max response", "setting": "[1]", "result": 18.4, "unit": "%"}, {"measurement": "AC50", "setting": "[2]", "result": "3.55 µM [rising, full curve, poor fit]"}, {"measurement": "AC50", "setting": "[3]", "result": "3.98 µM [rising, single point]"}, {"measurement": "max response", "setting": "[4]", "result": 21, "unit": "%"}]}
{"smiles": "COc1cc2oc(-c3ccccc3)cc(=O)c2cc1OC", "values": [{"measurement": "max response", "setting": "[1]", "result": 81.8, "unit": "%"}, {"measurement": "AC50", "setting": "[2]", "result": "0.794 µM [rising, full curve]"}, {"measurement": "AC50", "setting": "[3]", "result": "0.501 µM [rising, full curve]"}, {"measurement": "max response", "setting": "[4]", "result": 109, "unit": "%"}]}
{"smiles": "N#Cc1cccc(-c2nc(NCc3cccnc3)c3ccccc3n2)c1", "values": [{"measurement": "max response", "setting": "[1]", "result": 3.37, "unit": "%"}, {"measurement": "AC50", "setting": "[2]", "result": "0.178 µM [rising, full curve]"}, {"measurement": "AC50", "setting": "[3]", "result": "0.2 µM [rising, full curve]"}, {"measurement": "max response", "setting": "[4]", "result": 8.94, "unit": "%"}]}
{"smiles": "c1nc(NCCN2CCOCC2)c2cc(-c3ccoc3)ccc2n1", "values": [{"measurement": "max response", "setting": "[1]", "result": 37.3, "unit": "%"}, {"measurement": "AC50", "setting": "[2]", "result": "20 µM [rising, partial curve, poor fit]"}, {"measurement": "AC50", "setting": "[3]", "result": "17.8 µM [rising, partial curve, poor fit]"}, {"measurement": "max response", "setting": "[4]", "result": 42.5, "unit": "%"}]}
{"smiles": "CN(C)c1ncc2ncc(=O)n(C)c2n1", "values": [{"measurement": "max response", "setting": "[1]", "result": 27, "unit": "%"}, {"measurement": "AC50", "setting": "[2]", "result": "2 µM [rising, full curve, poor fit]"}, {"measurement": "AC50", "setting": "[3]", "result": "2.51 µM [rising, full curve, poor fit]"}, {"measurement": "max response", "setting": "[4]", "result": 36.3, "unit": "%"}]}
{"smiles": "c1cncc(CNc2ccnc(-c3cccnc3)n2)c1", "values": [{"measurement": "max response", "setting": "[1]", "result": 39.8, "unit": "%"}, {"measurement": "AC50", "setting": "[2]", "result": "3.55 µM [rising, full curve]"}, {"measurement": "AC50", "setting": "[3]", "result": "3.16 µM [rising, full curve]"}, {"measurement": "max response", "setting": "[4]", "result": 49.5, "unit": "%"}]}
{"smiles": "CCNc1ncc2nc(-c3cc(F)cc(F)c3)c(=O)n(Cc3ccc(F)cc3)c2n1", "values": [{"measurement": "max response", "setting": "[1]", "result": 31.7, "unit": "%"}, {"measurement": "AC50", "setting": "[2]", "result": "0.112 µM [rising, full curve, poor fit]"}, {"measurement": "AC50", "setting": "[3]", "result": "0.447 µM [rising, full curve, poor fit]"}, {"measurement": "max response", "setting": "[4]", "result": 43, "unit": "%"}]}
{"smiles": "COC(=O)N1CCC2(CC1)CCN(c1ncccn1)CC2", "values": [{"measurement": "max response", "setting": "[1]", "result": 28.9, "unit": "%"}, {"measurement": "AC50", "setting": "[2]", "result": "1.26 µM [rising, full curve, poor fit]"}, {"measurement": "AC50", "setting": "[3]", "result": "1 µM [rising, full curve]"}, {"measurement": "max response", "setting": "[4]", "result": 43.5, "unit": "%"}]}
{"smiles": "Cc1c(-c2ccc(Cl)cc2)noc1C1CCN(CCc2ccccc2)CC1", "values": [{"measurement": "max response", "setting": "[1]", "result": 51.5, "unit": "%"}, {"measurement": "AC50", "setting": "[2]", "result": "5.01 µM [rising, full curve, poor fit]"}, {"measurement": "AC50", "setting": "[3]", "result": "6.31 µM [rising, full curve, poor fit]"}, {"measurement": "max response", "setting": "[4]", "result": 55.2, "unit": "%"}]}
{"smiles": "CN1C(=O)CCC1c1cccnc1", "note": "(stereo not drawn)", "values": [{"measurement": "max response", "setting": "[1]", "result": "58.7% and 64.3%"}, {"measurement": "AC50", "setting": "[2]", "result": "35.5 µM [rising, partial curve, poor fit] and 7.08 µM [falling, partial curve, poor fit]"}, {"measurement": "AC50", "setting": "[3]", "result": "35.5 µM [rising, partial curve, poor fit] and 7.08 µM [falling, full curve]"}, {"measurement": "max response", "setting": "[4]", "result": "69% and 69.1%"}]}
{"smiles": "COc1cccc(-c2cncnc2Nc2ccccc2)c1", "values": [{"measurement": "max response", "setting": "[1]", "result": 32.3, "unit": "%"}, {"measurement": "AC50", "setting": "[2]", "result": "2.51 µM [rising, full curve]"}, {"measurement": "AC50", "setting": "[3]", "result": "2.82 µM [rising, full curve]"}, {"measurement": "max response", "setting": "[4]", "result": 41.2, "unit": "%"}]}
